Hit rate of the full screen: of about 94,000 compounds, about 6,200 (6.6%) were called active. This list was built around the results that the source calls inconclusive (neither active nor inactive); the mix of calls is not that of the screen. Calls come from the whole dose curve; as a rule, active = well fitted inhibition curve with a large enough effect; inconclusive = small, poorly fitted or top-dose-only effect; inactive = flat fitted curve, though single readings scatter. A potency beside an inconclusive call is a rough fit, not a confirmed value.
test: Cytotoxic Profiling in HEK 293 Cell Line of Diverse Libraries Using Quantitative High-Throughput Screening; conditions: HEK 293 viability, ATP luminescence (CellTiter-Glo), 48-72 h; series mostly up to 115 µM; note: nearly all actives have a fitted effect of over 60% in size
Procedure, shortened: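 HEK 293 seeded at 250 cells/well receive compound via pintool. After 48 or 72 hr at 37 degree Celsius, 5% CO2 and 95% humidity, CellTiter-Glo is dispensed and luminescence read following 10 min at room temperature.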
Potency is the fitted concentration of half-maximal effect; tags give direction and shape of the fitted curve.

| SMILES | Potency |
| --- | --- |
| Cc1ocnc1C(=O)N1CCC2(CCCN(CCCc3ccccc3)C2=O)C1 (configuration not stated) | inconclusive: 89.1 µM [inhibitor, single point] |
| CC(C)c1ccc(C(=O)N2CCC(Oc3ccc(C(=O)N(C)C)cn3)CC2)cc1 | inconclusive: 56.2 µM [inhibitor, partial curve, poor fit] |
| O=C(NC1CCN(C(=O)c2ccc(-c3cccs3)cc2)CC1)c1ccncc1 | inconclusive: 44.7 µM [inhibitor, partial curve, poor fit] |
| CC(C)C(=O)NC1CCN(C(=O)c2ccc(-c3ncccc3C#N)cc2)CC1 | inactive |
| FC(F)(F)c1cccc2c(N3CCC4(CCCN4Cc4ncc[nH]4)CC3)ccnc12 | inconclusive: 39.8 µM [inhibitor, partial curve, poor fit] |
| COCC1CN(C(C)=O)CC12CCN(Cc1ccc3[nH]ccc3c1)CC2 (configuration not stated) | inactive |
| CCNC(=O)c1cccc2c1CCN2S(=O)(=O)c1cccc(C)c1 | inconclusive: 39.8 µM [inhibitor, partial curve] |
| CC(C)CCN1CCCC2(C1)C(=NC1CCCC1)NC(=O)N2c1cccnc1 (configuration not stated) | inconclusive: 79.4 µM [inhibitor, single point] |
| COc1ccc(C(=O)N[C@H]2C[C@@H](Cc3cc(CN(C)C)on3)C2(C)C)cc1 | inactive |
| O=C(Nc1ccnc(Cl)c1)[C@@H]1CCCN1c1ccnc2ccnn12 | inconclusive: 44.7 µM [inhibitor, partial curve, poor fit] |
| O=C1NCCCCCCN(C(=O)CCC2CCCC2)[C@H]2CCCC[C@@H]12 | inconclusive: 89.1 µM [inhibitor, single point] |
| O=C(c1ccc(OC2CCN(C(=O)C3CC3)CC2)nc1)N1CCOCC1 | inconclusive: 89.1 µM [inhibitor, single point] |
| COc1cccc(NC(=O)CN2C(=O)NC(c3ccccc3Cl)C3=C2COC3=O)c1 (configuration not stated) | inconclusive: 79.4 µM [inhibitor, partial curve, poor fit] |
| CN(Cc1ccccc1C(F)(F)F)C(=O)c1ccccc1 | inconclusive: 112 µM [inhibitor, partial curve, poor fit] |
| O=C1CN([S+](=O)([O-])c2ccccc2)CC(O)CN1Cc1ccc(Cl)cc1 (configuration not stated) | inconclusive: 89.1 µM [inhibitor, single point] |
| COc1ccc(C(=O)N2C[C@H](C(N)=O)[C@H]3c4ccccc4N(C)C(=O)[C@]32C)cc1OC | inconclusive: 39.8 µM [inhibitor, single point] |
| CN(c1ccc(Cl)c(Cl)c1)C1CNC1 | active: 112 µM |
| O=C(C1CCCN1C(=O)c1ccc(C(F)(F)F)cc1)N1CCC(c2nc3ncccc3[nH]2)CC1 (configuration not stated) | inactive |
| COC1CCOC2(CCN(C(=O)CCc3nc4ccccc4s3)CC2)C1 (configuration not stated) | inconclusive: 79.4 µM [inhibitor, single point] |
| COCCN1CC(CO)C2(CCN(Cc3cccs3)CC2)C1 (configuration not stated) | inconclusive: 89.1 µM [inhibitor, single point] |
| Cc1cc(C)cc(-c2ccc(CN3CCCC(NC(=O)NC4CCCC4)C3)cc2)c1 (configuration not stated) | inconclusive: 89.1 µM [inhibitor, single point] |

| SMILES | Potency |
| --- | --- |
| COc1cccc(NC(=O)[C@@H]2C[C@H](c3ccc(F)cc3)N([S+](=O)([O-])C3CC3)C2)c1 | inconclusive: 112 µM [inhibitor, partial curve] |
| CC(C)NC(=O)c1onc(-c2ccc(Cl)cc2)c1[C@H](C)O | inconclusive: 126 µM [inhibitor, single point] |
| COc1cccc(-c2ccc(C(=O)N3CCC(N[S+](=O)([O-])CCC(F)(F)F)CC3)cc2)c1 | inconclusive: 56.2 µM [inhibitor, partial curve, poor fit] |
| Cc1ccc(-c2cn3cc(C(=O)NCc4cccs4)nc3s2)cc1 | inconclusive: 63.1 µM [inhibitor, partial curve, poor fit] |
| Fc1ccc(CN2CCn3c(nnc3-c3ccc(Cl)cc3)C2)cc1 | inconclusive: 112 µM [inhibitor, single point] |
| COc1ccccc1-c1ccc2c(C(=O)NCCCc3ccccc3)nn(C)c2n1 | inconclusive: 50.1 µM [inhibitor, partial curve, poor fit] |
| O=C(c1ccc(C(F)(F)F)cc1)N1CCCC(C(=O)N2CCCC(c3nc4ncccc4[nH]3)C2)C1 (configuration not stated) | inconclusive: 35.5 µM [inhibitor, partial curve, poor fit] |
| O=C(NC1CCCCC1)N1CCC(c2noc(-c3ccccc3)n2)C1 (configuration not stated) | inconclusive: 56.2 µM [inhibitor, partial curve, poor fit] |
| COc1cc(NC(=O)Cn2c(-c3ccc(Cl)cc3)nc(C)c(CCO)c2=O)cc(OC)c1 | inconclusive: 35.5 µM [inhibitor, single point] |
| O=C(NC1CC1)C1CCN(C(=O)c2ccc(-c3cccs3)cc2)CC1 | inconclusive: 89.1 µM [inhibitor, single point] |
| CCN(CC)C(=O)c1cn2ccnc(-c3ccc(C)cc3)c2n1 | inconclusive: 89.1 µM [inhibitor, single point] |
| Cc1cn2nc(C(=O)Nc3ccc(F)cc3C)cc2c(N(C)Cc2ccccc2)n1 | inconclusive: 50.1 µM [inhibitor, partial curve, poor fit] |
| COCc1nc(-c2ccc(OC3CCN(C(=O)c4nn(C)c5ccccc45)C3)cc2)no1 (configuration not stated) | inconclusive: 35.5 µM [inhibitor, partial curve, poor fit] |
| CC1=C(C(=O)OC(C)C)C(c2ccccc2Cl)CC(=O)N1Cc1c(F)cccc1F (configuration not stated) | inconclusive: 56.2 µM [inhibitor, partial curve, poor fit] |
| O=C(Nc1ccccc1)C1CC(c2ccccc2)CN(C(=O)NCc2ccccc2)C1 (configuration not stated) | inconclusive: 89.1 µM [inhibitor, single point] |
| O=C(c1ccoc1)N1CCC(Oc2cccnc2)C1 (configuration not stated) | inactive |
| O=C(NC1CCCN(c2ccc3nnc(C4CC4)n3n2)C1)c1cccc(Cl)c1 (configuration not stated) | inconclusive: 56.2 µM [inhibitor, partial curve, poor fit] |
| NC(=O)[C@@H]1CN(C(=O)c2ccncc2)C[C@H]1COc1ccccc1 | inactive |
| CC(C)c1noc([C@@H]2C[C@H]3C(=O)NCCCCCCN(C(=O)COc4ccc(F)cc4)[C@H]3C2)n1 | inconclusive: 79.4 µM [inhibitor, single point] |
| Cc1ccccc1C(=O)NCCNC(=O)c1cccc(-c2ccsc2)c1 | inconclusive: 50.1 µM [inhibitor, partial curve, poor fit] |
| O=[S+]1([O-])NCC2(CCCN(Cc3ccc(F)cc3)C2)Oc2ncccc21 (configuration not stated) | inactive |

| SMILES | Potency |
| --- | --- |
| COc1cccc(NC(=O)N2CCCC(Cn3c(C)nc4cccnc43)C2)c1 (configuration not stated) | inactive |
| O=C(Cc1ccccn1)N1CCN(C(=O)c2cccc(-c3ccccn3)c2)CC1 | inactive |
| Cc1ccc(Nc2ccnc(N3CCCN([S+](=O)([O-])c4ccc(C)cc4)C3)n2)cc1 | inconclusive: 25.1 µM [inhibitor, full curve] |
| O=C(NCc1ccc2nonc2c1)[C@@]12CNC[C@@H]1CN(C1CCCC1)C2 | inactive |
| O=[S+]([O-])(NC1CCN(Cc2cccc(-c3cccs3)c2)CC1)c1cccc(C(F)(F)F)c1 | inconclusive: 22.4 µM [inhibitor, full curve, poor fit] |
| Cc1nn(-c2ccccc2)c(C)c1CN1CCCCC12Cc1ccccc1CNC2=O (configuration not stated) | inconclusive: 79.4 µM [inhibitor, partial curve, poor fit] |
| COCCN1CC(CO)C2(CCN(Cc3cc(F)ccc3F)CC2)C1 (configuration not stated) | inconclusive: 89.1 µM [inhibitor, single point] |
| COc1ccccc1CNC(=O)C1CCN(Cc2ccccc2-c2cccnc2)CC1 | inconclusive: 63.1 µM [inhibitor, partial curve, poor fit] |
| Cc1ccc(-c2noc([C@@H]3CCCN3C(=O)c3cc(F)ccc3Cl)n2)cc1 | inconclusive: 44.7 µM [inhibitor, partial curve, poor fit] |
| Cc1nnc2ccc(N3CCN(S(=O)(=O)c4ccccc4)CC3)nn12 | inactive |
| CN1C(=O)CC(C(=O)O)C12CCN(C(=O)Nc1cccc(F)c1)CC2 (configuration not stated) | inactive |
| O=C1CCN(C(=O)c2ccccc2)CCCC(C(=O)N2CCc3ccccc32)CCN1 (configuration not stated) | inactive |
| O=S(=O)(N[C@H]1[C@H](O)[C@H](O)C[C@@H]1c1ccc(C(F)(F)F)cc1)c1ccc(F)cc1 | active: 70.8 µM |
| Cc1nn(-c2ccc(F)cc2)c(Oc2ccccc2F)c1CCC(=O)NC(C)C | inconclusive: 50.1 µM [inhibitor, partial curve, poor fit] |
| COc1ccc(CNC(=O)Cn2nc(C)c3sc(C(C)C)nc3c2=O)cc1 | inactive |
| COc1cccc(-c2cc(C3CCN(C(=O)Nc4cccc(F)c4)CC3)[nH]n2)c1 | inconclusive: 44.7 µM [inhibitor, partial curve, poor fit] |
| COc1cccc(CNC(=O)c2cc(C(C)(C)C)nc3c2cnn3C)c1 | inconclusive: 50.1 µM [inhibitor, partial curve, poor fit] |
| CN(CC(N)=O)C(=O)[C@@H]1[C@@H](NC(=O)Nc2ccc(F)cc2F)CCN1C(=O)c1cnccn1 | inactive |
| O=C(C1CCCN1C(=O)Nc1ccc(Cl)cc1)N1CCC(N2Cc3ccccc3C2=O)CC1 (configuration not stated) | inactive |
| Cc1cccc(CC(=O)N2CCCC(n3cc(-c4nc(-c5ccccc5)no4)nn3)C2)c1 (configuration not stated) | inconclusive: 50.1 µM [inhibitor, partial curve, poor fit] |

Source: PubChem BioAssay AID1345083 (National Center for Advancing Translational Sciences (NCATS), 2018)
